# Experimental data reported in the supplement of paper PMC8512760.
# This is one part of the list. Most values come without repeats; read them as rough.
# Key:
# Experiment in all cases: cell viability relative to vehicle (% of vehicle); basal-like triple-negative breast cancer lines; higher = less cytotoxic
# Conditions in all cases: 10 µM; 72 h
# [1] = test system: HCC-1143
# [2] = test system: HCC-1187
# [3] = test system: MDA-468
# [4] = test system: SUM-149
# 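Further: stably firefly luciferase-GFP labeled cells in 96-well plates, viability read as luciferase photon flux after d-luciferin addition, treated wells normalized to vehicle wells, single-dose high-throughput screen.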
Compound,cell viability [1],cell viability [2],cell viability [3],cell viability [4]
CN(C)C1C(=O)C(C(N)=O)=C(O)C2(O)C(=O)C3=C(O)c4c(O)cccc4C(C)(O)C3C(O)C12.O.O (stereo not drawn) [Oxytetracycline Dihydrate],74.8,78,93.3,107
C[C@@H]1CC[C@H]2[C@@H](C)C(=O)O[C@@H]3OC4(C)CC[C@@H]1[C@]32OO4 [Artemisinine],133,105,89.3,116
Cl.O=C1CCC2(O)C3Cc4ccc(O)c5c4C2(CCN3CC2CC2)C1O5 (stereo not drawn) [Naltrexone HCl],83.8,88.5,97.3,134
CC(=O)Nc1cc([As](=O)(O)O)ccc1O [Arsonic acid],78.2,106,98.7,105
OC(c1ccccc1)(c1ccccc1)C1CCNCC1 [Azacyclonol],71.8,80.3,104,123
CN(C)C(=O)C(CCN1CCC(O)(c2ccc(Cl)cc2)CC1)(c1ccccc1)c1ccccc1.Cl [Loperamide HCl],97.5,82.5,88.2,88.9
NCCC(O)(P(=O)([O-])O)P(=O)([O-])O.[Na+].[Na+] [Pamidronate Disodium],76.2,84.4,75.3,78.4
Cn1c(COP(=O)(NCCBr)NCCBr)cnc1[N+](=O)[O-],118,58.9,95.6,78.6
C=CCC1(O)CCC2C3CCC4=CC(=O)CCC4=C3C=CC21C (stereo not drawn) [Altrenogest],76.3,118,102,111
CCN(C)C(=O)Oc1cccc(C(C)N(C)C)c1.O=C(O)C(O)C(O)C(=O)O (stereo not drawn) [Rivastigmine Tartrate],79.7,103,122,105
CNC1CC(N)C(O)C(OC2OC(CO)C(O)C3OC4(OC(C(N)CO)C(O)C(O)C4O)OC23)C1O (stereo not drawn) [Hygromycin B],60.4,95.9,88.6,152
Oc1cc(Cl)ccc1Oc1ccc(Cl)cc1Cl [Triclosan],78.1,82.8,111,94.1
CC(O)(CS(=O)(=O)c1ccc(F)cc1)C(=O)Nc1ccc(C#N)c(C(F)(F)F)c1 (stereo not drawn) [Bicalutamide],78.4,116,90.5,94.2
CCCN1CC(CSC)CC2c3cccc4[nH]cc(c34)CC21.CS(=O)(=O)O (stereo not drawn) [Pergolide mesylate],96,116,65.9,111
c1ccc2c(c1)sc1ccccc12 [Dibenzothiophene],73.1,94.7,110,81.6
CC(C)c1c(CN(C)C(C)Cc2ccccc2)n(C)n(-c2ccccc2)c1=O (stereo not drawn) [Famprofazone],127,105,112,100
NC(Cc1ccc(N(CCCl)CCCl)cc1)C(=O)O (stereo not drawn) [Melphalan],80.8,91,93.3,107
Cc1cccc(C(C)c2cnc[nH]2)c1C (stereo not drawn) [Dexmedetomidine],93.3,109,104,95.6
NC(=O)CN1CC(O)CC1=O (stereo not drawn) [Oxiracetam],120,106,104,109
O=C(O)c1nn(Cc2ccc(Cl)cc2Cl)c2ccccc12 [Lonidamine],77.7,105,107,111
C[N+]1(C)CCCC(OC(=O)C(O)(c2ccccc2)c2ccccc2)C1.[Br-] (stereo not drawn) [Mepenzolate Bromide],113,93,115,109
CCN(C)C(=O)Oc1cccc(C(C)N(C)C)c1 (stereo not drawn) [Rivastigmine],89.7,108,84.9,117
Cc1ccc(-n2nccn2)c(C(=O)N2CCN(c3nc4cc(Cl)ccc4o3)CCC2C)c1 (stereo not drawn),118,70.9,96.4,104
COc1ccc(C(=O)N2CCCC2=O)cc1 [Aniracetam],80.5,80.4,116,116
NCC1(CC(=O)O)CCCCC1 [Gabapentin],78.2,69.5,89.6,89.4
O=c1[nH]c2ccccc2n1C1CCN(CCCC(c2ccc(F)cc2)c2ccc(F)cc2)CC1 [Pimozide],71.5,83.9,111,72.2
CCC1(c2ccc(N)cc2)CCC(=O)NC1=O (stereo not drawn) [Aminoglutethimide],78.4,92.9,104,98.5
